The other results are listed elsewhere or left out. At the low end of the ranking the order means little.

This experiment has as its target T1, GST-Rok-C97-191 (UniProt O34857).
T1 sequence: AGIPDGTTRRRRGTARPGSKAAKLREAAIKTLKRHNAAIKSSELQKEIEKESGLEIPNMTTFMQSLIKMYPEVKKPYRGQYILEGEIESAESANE
Description: protein binding microarray.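 Further: rank score from −0.5 (least bound) to 0.5 (best bound).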 The conditions noted are these: Rok is a gene silencer of Bacillus subtilis; high values mean tight binding; most listed sequences are background and not binding sites; double strand, one strand shown.
With AAACACAA, the binding signal is -0.0352 E-score.
In the case of GCCCCCAA it was -0.241 E-score; in that of ATTACCTG, 0.0992 E-score; in that of ACACGTCC, -0.111 E-score.
ATTTCCGC registered a binding signal of 0.0532 E-score.
As for ACGTACGT, the figure is 0.105 E-score.
As to AACCCATT, the binding signal came to 0.066 E-score.
The sequence CGGATCGC had a binding signal of -0.124 E-score.
For CCAAGTAA, the binding signal came to 0.0468 E-score.
The sequence ATGAAGTG came in with a binding signal of -0.198 E-score.
ATGCGTGA displayed a binding signal of 0.0743 E-score.
ATATACAA returned a binding signal of 0.365 E-score.
AGATTAAA displayed a binding signal of 0.136 E-score.
In the case of CCTTTTAC it was -0.105 E-score.
The sequence CAATCAAG showed a binding signal of -0.0329 E-score.
As for AATCAGAT, the figure is -0.0803 E-score; as for ATATTCAG, -0.000452 E-score.
In the case of ACACCTAA it was 0.191 E-score; in that of TGAGATCA, -0.0085 E-score.
For the sequence TGTATAAA, the binding signal turned out to be 0.179 E-score.
As for ATGCACAA, the binding signal is -0.0105 E-score.
In the case of ACCGCTTA it was 0.0251 E-score.
With AAGAGGGT, the binding signal is -0.183 E-score.
Regarding CATCCTGC, the binding signal was -0.0292 E-score.
In the case of AATCGCCA it was -0.00284 E-score; in that of GGTGGGAA, -0.0164 E-score; in that of CAAGTGCC, -0.21 E-score.
Regarding ACCACGCT, the binding signal was -0.0294 E-score.
In the case of TAAGGTGA it was -0.0832 E-score.
As to CATTAAGC, the binding signal was -0.0874 E-score.
As for ATCACATG, the binding signal worked out at 0.253 E-score.
In the case of CCGCATAC it was 0.0942 E-score.
In the case of ACCTGAGG it was -0.0337 E-score.
For AAGGCAGA, the binding signal was -0.388 E-score.
In the case of CAGCGCCA it was -0.346 E-score; in that of ACTAACGG, 0.108 E-score; in that of TCTAGGCA, -0.0549 E-score.
TCAAATGA came in with a binding signal of -0.0314 E-score.
Regarding AGACCTTG, the binding signal is -0.191 E-score.
As for CGAGTTAG, the figure is 0.0933 E-score.
In the case of ACCCCATA it was -0.221 E-score; in that of AGCCCTGA, -0.247 E-score.
In the case of ATGATGAC it was 0.0534 E-score; in that of GATAGCCA, -0.0728 E-score.
CGCGTCCC yielded a binding signal of -0.287 E-score.
As for CGCTATTA, the figure is 0.195 E-score.
As for AGTGGATG, the figure is -0.131 E-score.
As for AGGGCATC, the figure is -0.277 E-score; as for CGCGCTAC, -0.0357 E-score.
AGTGGACA came in with a binding signal of -0.00917 E-score.
As for TAAGAAGA, the figure is 0.0262 E-score; as for AAGTTTTC, 0.112 E-score.
As for ATAAGGAC, the binding signal is -0.0777 E-score.
In the case of CCTTATCC, the binding signal is -0.0314 E-score.
As for ATCCGGTC, the figure is -0.0436 E-score.
On to AGCTGAAA, for which the binding signal turned out to be 0.0089 E-score.
As for ACTTAAAA, the figure is 0.0575 E-score.
AACCTCTG had a binding signal of -0.177 E-score.
In the case of AATACAAA it was 0.313 E-score.
As for ATCTATTG, the figure is 0.252 E-score; as for GAGTACTA, 0.0418 E-score; as for GCCGGCCA, -0.177 E-score.
For GGCGAACC, the binding signal is -0.0946 E-score.
For the sequence CTTTAATA, the binding signal worked out at 0.178 E-score.
In the case of GAAGGATC it was -0.0869 E-score.
Turning to GGCCCTCA, the binding signal is -0.343 E-score.
On to AAGGTGGC, for which the binding signal is -0.203 E-score.
Sequence CTGGATCC displayed a binding signal of -0.183 E-score.
As for ACTATTAA, the figure is 0.302 E-score; as for ACTCTGGA, -0.0876 E-score; as for TAGTTTCA, 0.361 E-score.
For ACGGGTCA, the binding signal was -0.188 E-score.
As for AATTGGTG, the binding signal was -0.063 E-score.
In the case of CATGACCC it was -0.0304 E-score; in that of AAATAAAT, 0.144 E-score.
With AACGAATA, the binding signal was 0.0885 E-score.
As for CATTGAAA, the figure is -0.0234 E-score; as for CGCGCTGC, -0.234 E-score; as for CATCAGCA, 0.122 E-score.
In the case of AGGTGAGG it was -0.0995 E-score; in that of GCTCTCAA, -0.0958 E-score; in that of ACATGGAG, 0.0916 E-score.
CACGGACC: the binding signal was -0.269 E-score.
On to GGAGTCGA, for which the binding signal is -0.16 E-score.
As for ATCCTGGC, the figure is 0.0703 E-score.
GGCATTAA showed a binding signal of -0.0261 E-score.
In the case of GCAAGTGC it was -0.0176 E-score; in that of GCATTAGC, 0.00966 E-score.
ATCATAAC had a binding signal of 0.129 E-score.
As for CACGGAGG, the figure is -0.299 E-score; as for AATGTAAG, 0.112 E-score.
As for TCCACGAA, the figure is -0.0391 E-score.
CATCCTTA: the binding signal was 0.0396 E-score.
With AGTCAACA, the binding signal was -0.0737 E-score.
Sequence CGCGCCAA displayed a binding signal of -0.117 E-score.
In the case of TAAAATTA it was 0.306 E-score; in that of TAAAGTTA, 0.0978 E-score; in that of CCAATTCA, -0.126 E-score.
As for CAATAACA, the figure is -0.0401 E-score; as for AAACGCGT, 0.0909 E-score; as for GGTCTCAA, -0.108 E-score.
In turn, AGTAGTGA gave a binding signal of 0.121 E-score.
On to CGCTAAAG, for which the binding signal is 0.0345 E-score.
As for CGCATCCA, the figure is -0.00168 E-score; as for GAGTTTCA, -0.0326 E-score; as for ATCGTGAA, 0.0491 E-score.
As for GGAGTCCA, the figure is -0.216 E-score.
As for ATAGTCGA, the binding signal is 0.0241 E-score.
Regarding CTAACGTA, the binding signal worked out at 0.0977 E-score.
Sequence TCAGCACA returned a binding signal of 0.00937 E-score.
In the case of AAGAATGC it was -0.0181 E-score; in that of CAACCCAC, -0.242 E-score; in that of CTTTTTAA, 0.0854 E-score.
As for CACCGGAC, the figure is -0.0977 E-score.
As for ATCGAGTA, the figure is 0.218 E-score.
AAAAGGGG displayed a binding signal of -0.252 E-score.
On to ACCCAGGA, for which the binding signal is -0.0977 E-score.
The sequence ACGTTTAC gave a binding signal of 0.0121 E-score.
As for GACTTACC, the figure is 0.0874 E-score.
With AAATGCGT, the binding signal is -0.0125 E-score.
Turning to ACTTGACT, the binding signal was -0.0226 E-score.
As for GATCACCC, the figure is -0.283 E-score; as for GTGCCCAC, -0.14 E-score; as for TAGTACAA, 0.311 E-score.
ACACGGCG displayed a binding signal of -0.236 E-score.
As for CACTACAA, the figure is 0.173 E-score.
Turning to TCCCTTAA, the binding signal was -0.0648 E-score.
In the case of CCCCAACA it was -0.0678 E-score.
Sequence CGTCTACC gave a binding signal of -0.0348 E-score.
In the case of AGCCACTG it was -0.26 E-score; in that of CCGATAGC, 0.0218 E-score.
CACTCGAA: the binding signal is 0.0354 E-score.
Turning to TACCGGTA, the binding signal came to 0.355 E-score.
As for CGGACAAC, the figure is -0.0352 E-score; as for GAGGTTGA, -0.067 E-score; as for AGGGCAAG, -0.251 E-score.
Consider AACATAGT, for which the binding signal was 0.184 E-score.
In turn, GGGCTATA came in with a binding signal of 0.157 E-score.
In the case of CAAGGAGA it was -0.113 E-score; in that of AATTAGGG, 0.00788 E-score.
As for CTACGCTC, the binding signal was determined as 0.0379 E-score.
In the case of GATGCCAC it was -0.166 E-score.
For the sequence GTCTAGAC, the binding signal was -0.0432 E-score.
The sequence AGCCGAGA showed a binding signal of -0.0879 E-score.
ATTAGACG registered a binding signal of 0.0479 E-score.
ACCGTCGC: the binding signal was -0.194 E-score.
GCCGGCGA: the binding signal was -0.228 E-score.
GGGTGGAC gave a binding signal of -0.267 E-score.
In the case of AATCCCGG it was -0.153 E-score.
Consider ACTGGTTA, for which the binding signal came out at 0.0888 E-score.
ACAGGGAT gave a binding signal of -0.128 E-score.
In the case of GGACGCGA it was -0.308 E-score.
CATTAAAG returned a binding signal of 0.0022 E-score.
On to AAGATTTC, for which the binding signal stood at 0.0786 E-score.
The sequence CAGTTAAG gave a binding signal of -0.0106 E-score.
As for CACACCCG, the figure is -0.162 E-score; as for CCACTTCG, -0.169 E-score; as for AACGGGTA, 0.126 E-score.
In the case of ACGTCCAG it was -0.068 E-score.
As for GCAATTGC, the figure is 0.135 E-score; as for CTGTGGCA, -0.306 E-score.
CGTACAAA returned a binding signal of 0.236 E-score.
In the case of AGAATGCG it was 0.105 E-score; in that of CGTCATCA, -0.157 E-score; in that of AGCAATCC, -0.0141 E-score.
Take AGGTCTAC: the binding signal is 0.036 E-score.
As for GAACATTA, the figure is 0.0913 E-score; as for GATCAATC, 0.0299 E-score.
In the case of ATACGTTA it was 0.153 E-score.
As for AAGTGCGA, the figure is -0.094 E-score; as for TCAAGCAA, -0.0673 E-score; as for CAAATCAG, -0.0544 E-score.

These data come from article PMC6212790.
